# Hit rate of the full screen: of about 350,000 compounds, about 9,900 (2.8%) were called active. This list was built around the results that the source calls inconclusive (neither active nor inactive); the mix of calls is not that of the screen. Calls come from the whole dose curve; as a rule, active = well fitted activation curve with a large enough effect; inconclusive = small, poorly fitted or top-dose-only effect; inactive = no such curve, though single readings can be large or run the other way. No potency is given beside an inconclusive call; the fits are too rough.
# Experiment: A quantitative high throughput screen for small molecules that induce DNA re-replication in MCF 10a normal breast cells. Note: nearly all actives have a fitted effect of over 50% in size.
# Conditions: MCF 10A DNA re-replication, Hoechst nuclear intensity, 48 h; series mostly up to 46.1 µM
# Potency is the fitted concentration of half-maximal effect; tags give direction and shape of the fitted curve.
row,SMILES,Potency
1,COc1ccc(Cc2nnc(NC(=O)C3CC(=O)N(CCc4ccc(F)cc4)C3)s2)cc1OC (stereo not drawn),inactive
2,Nc1cccc(P(=O)(c2ccccc2)c2ccccc2)c1,"inconclusive [activator, single point]"
3,CC(NC(=O)C1CCCN(S(=O)(=O)c2cccc3nonc23)C1)c1ccccc1 (stereo not drawn),"inconclusive [activator, single point]"
4,Cc1cc(C)n(-c2nc3ccccc3nc2NCCc2ccccc2)n1,"inconclusive [activator, single point]"
5,Nc1ccc(S(=O)(=O)Nc2ccnn2-c2ccccc2)cc1,inactive
6,COc1cc(Cl)cc2c1Sc1ccccc1/C2=C/CCN(C)C,"inconclusive [activator, single point]"
7,CC(C)(C)S(=O)N1Cc2cn(Cc3ccccc3)c(=O)cc2[C@@H]1CCO (stereo partly drawn),"inconclusive [activator, full curve, poor fit]"
8,CCCN(CCC)CCCNC(=O)Cn1cnc2sc(C)c(S(=O)(=O)N3CCC(C)CC3)c2c1=O,"inconclusive [activator, single point]"
9,Cn1c(SCC(=O)Nc2nc3ccccc3s2)nnc1-c1ccccc1,inactive
10,COCCNc1c2c(nc3c(-c4ccccc4)c(C)nn13)CCC2,"inconclusive [activator, single point]"
11,Cc1ccc2c(c1)N(Cc1ccc3c(c1)OCO3)C(=O)C(C)O2 (stereo not drawn),"inconclusive [activator, partial curve, poor fit]"
12,Cc1[nH]n2c(=O)cc(C(C)(C)C)nc2c1-c1ccccc1,"inconclusive [activator, single point]"
13,COc1ccc(C=O)cc1Cn1c(C)cc(C)c(C#N)c1=O,"inconclusive [activator, partial curve, poor fit]"
14,COc1ccc([C@@H]2CC=C(C(=O)O)[C@H](c3ccc(Cl)cc3)N2S(=O)(=O)c2ccccc2C)cc1,inactive
15,CCOc1ccc(-n2c(=S)sc3c(=O)[nH]c(SCC(=O)C(C)(C)C)nc32)cc1,"inconclusive [activator, single point]"
16,Cc1cc(=O)oc2cc(OCC(=O)c3ccccc3)ccc12,"inconclusive [activator, partial curve, poor fit]"
17,NC12NC(=O)C3(O)C4C5CC(C6C5C3C61)C42 (stereo not drawn),inactive
18,CCOc1ccccc1N1CCN(C(=O)NCc2ccc(F)cc2)CC1,"inconclusive [activator, partial curve, poor fit]"

# From PubChem BioAssay AID624296 (National Center for Advancing Translational Sciences (NCATS), 2012)
